Data on 88 compounds can be found in article PMC4336329 (PLoS ONE, 2015).

Structures are written as SMILES. Screen size: about 310,000 compounds; about 14,000 (4.5%) showed an effect of 50% or more. The effect is printed as a negative number. The list shows a part of the results.
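Note: peak tail current of the secondary pulse compared with the same well before compound.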

human ether-à-go-go-related gene (hERG) potassium channel, sequence (Q12809 whole entry, looked up): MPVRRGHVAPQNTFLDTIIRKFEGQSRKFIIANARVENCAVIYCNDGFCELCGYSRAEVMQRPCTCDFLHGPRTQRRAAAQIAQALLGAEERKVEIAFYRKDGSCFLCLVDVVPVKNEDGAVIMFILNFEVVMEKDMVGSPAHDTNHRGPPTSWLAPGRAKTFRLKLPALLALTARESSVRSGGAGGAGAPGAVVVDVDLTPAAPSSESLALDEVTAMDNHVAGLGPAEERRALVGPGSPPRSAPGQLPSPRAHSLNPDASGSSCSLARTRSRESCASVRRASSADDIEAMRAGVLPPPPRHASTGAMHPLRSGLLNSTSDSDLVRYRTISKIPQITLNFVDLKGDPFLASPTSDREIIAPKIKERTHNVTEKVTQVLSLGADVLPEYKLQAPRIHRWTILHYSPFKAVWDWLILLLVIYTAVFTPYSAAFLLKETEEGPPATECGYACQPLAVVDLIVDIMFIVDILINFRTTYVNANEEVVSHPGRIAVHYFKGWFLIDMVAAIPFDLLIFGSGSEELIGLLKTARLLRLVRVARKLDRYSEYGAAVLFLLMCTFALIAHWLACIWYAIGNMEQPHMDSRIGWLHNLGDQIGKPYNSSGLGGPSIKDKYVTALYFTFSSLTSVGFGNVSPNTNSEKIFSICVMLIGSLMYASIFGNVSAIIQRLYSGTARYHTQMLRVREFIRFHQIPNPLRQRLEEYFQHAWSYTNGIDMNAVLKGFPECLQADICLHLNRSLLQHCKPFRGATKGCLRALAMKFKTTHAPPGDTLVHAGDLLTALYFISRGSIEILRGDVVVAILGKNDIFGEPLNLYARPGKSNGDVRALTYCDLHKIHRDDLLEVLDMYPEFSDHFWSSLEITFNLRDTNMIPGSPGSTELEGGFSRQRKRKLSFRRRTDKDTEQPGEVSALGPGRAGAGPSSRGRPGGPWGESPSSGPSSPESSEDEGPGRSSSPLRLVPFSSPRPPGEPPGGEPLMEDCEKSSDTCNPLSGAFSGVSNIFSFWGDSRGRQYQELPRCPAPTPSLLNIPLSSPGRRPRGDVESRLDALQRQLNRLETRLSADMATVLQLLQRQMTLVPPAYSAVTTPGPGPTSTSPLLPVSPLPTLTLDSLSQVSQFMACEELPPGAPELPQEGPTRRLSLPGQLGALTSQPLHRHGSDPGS

The experiment addresses human ether-à-go-go-related gene (hERG) potassium channel (human, UniProt Q12809). In words: primary screen, population patch clamp on CHO cells stably expressing hERG.
`Cc1nc(-c2ccccc2)nc2n[nH]c(N)c12`: the “hERG current change (%, negative = inhibition) at 10uM” value is 16.2%. Next, `Cc1ccc(S(=O)(=O)NC2=NCN(C3CCCCC3)CN2)cc1`: 9.39%. As to `COCCCNC(=O)c1c(NC(=O)c2ccccc2Cl)n(Cc2ccccc2)c2nc3ccccc3nc12`, the “hERG current change (%, negative = inhibition) at 10uM” value is reported as 6.73%. Next, `Cc1c(C(=O)Nc2nonc2-c2ccc(F)cc2)oc2ccc(F)cc12`: -0.655%; `COC(=O)c1ccc(CNC(=O)c2ccc(COc3ccccc3)cc2)cc1`: 4.97%. For `COc1cc(C(=O)Nn2cnnc2)ccc1OC(F)F` the value was 21.3%; for `Cc1ccc(C(=O)N/C(=C/c2ccccc2)C(=O)NC(Cc2ccccc2)C(=O)O)cc1` (stereo not shown), 8.07%. For `COC(=O)c1ccccc1NC(=O)CN(CCc1ccccc1)S(C)(=O)=O` the value was -20%. With `CN1CC(C(=O)c2ccc([N+](=O)[O-])cc2)C(c2ccc(Cl)cc2)C1` (stereo not shown), the “hERG current change (%, negative = inhibition) at 10uM” value was -75.6%. For `Nc1nc2nonc2nc1N` the value was 15.3%; for `CCOC(=O)c1csc(Nc2nc3ccc(F)cc3s2)n1`, -5.85%; for `CSc1ccc(CN(C)CC(=O)NC(C)c2ccccc2)cc1` (stereo not shown), -83.9%.

In the case of `Cc1ccccc1NC(=O)c1c(C)[nH]c(=S)c(C#N)c1-c1ccc(Cl)cc1`, the “hERG current change (%, negative = inhibition) at 10uM” value is given as 21.1%. Next, `COc1ccc(-c2c(S(=O)(=O)c3ccccc3)cnn2-c2ccccc2)cc1`: -2.43%. As for `COc1ccc2cc(S(=O)(=O)N3CCCC(C)C3)ccc2c1` (stereo not shown), the “hERG current change (%, negative = inhibition) at 10uM” value is listed as 6.14%.

Take `COc1ccc(/C=N/NC(=O)CN2CCN(Cc3ccccc3)CC2)cc1Br`: the “hERG current change (%, negative = inhibition) at 10uM” value was -68%. Next, `Cc1cc(NC(=O)CSc2nc3ccccc3c(=O)n2Cc2ccc(F)cc2)no1`: 5.59%; `CCOC(=O)C(NC(C)=O)(NS(=O)(=O)c1ccccc1)C(F)(F)F` (stereo not shown): 16.2%.

Consider `CS(=O)(=O)c1ccc(Cl)c(NC(=O)CCN2C(=O)C3CC=CCC3C2=O)c1` (stereo not shown), for which the “hERG current change (%, negative = inhibition) at 10uM” value is reported as -2.93%.

Take `O=C(COc1ncnc2ccccc12)N1CCN(S(=O)(=O)c2ccccc2)CC1`: the “hERG current change (%, negative = inhibition) at 10uM” value is reported as 4.3%. For `Cc1nc2cccc(C(=O)NCc3ccccc3)c2o1` the value was 5.43%; for `CC(C)C1Nc2c(C(=O)[O-])cccc2C(Nc2ccccc2C(=O)[O-])C1(C)C.[K+]` (stereo not shown), -0.17%; for `CCc1nnc(NC(=O)c2nn(-c3ccccc3)nc2C)s1`, 0.641%. Next, `COc1ccc(C(C2C(=O)CC(C)(C)CC2=O)C2C(=O)CC(C)(C)CC2=O)cc1COCC(F)(F)F`: -10.9%; `CN1C(=O)/C(=C/c2ccc(OCc3cccc(F)c3)cc2)NC1=S`: 19.6%; `CC(C)N(Cc1ccccc1)C(=O)c1ccc2c(c1)OCO2`: 1.14%. Next, `CC(CCn1cccn1)NC(=O)c1cc(COc2ccc(F)cc2Cl)on1` (stereo not shown): -30.6%; `COC(=O)NNC1=CC(=O)CC(C)(C)C1`: 23.9%. Take `O=[N+]([O-])c1ccccc1S(=O)(=O)Nc1nc2ccccc2s1`: the “hERG current change (%, negative = inhibition) at 10uM” value is -15.4%. For `CC(C)Oc1ccc(S(=O)(=O)N2CCOCC2)cc1NC(=O)CC1CCCC1` the value was -7.52%; for `C=CCc1cc(C=O)cc(OCC)c1OCc1ccc(Cl)cc1`, 31.4%. Next, `CCN(CC1CCCN(CCc2cccc(OC)c2)C1)C(=O)c1ccoc1` (stereo not shown): -70.7%. For `COCCCn1c(C23CC4CC(CC(C4)C2)C3)n[nH]c1=S` the value was -5.2%; for `Cc1ccc(C(NC(=O)N2CCCC2)C(Cl)Cl)cc1F` (stereo not shown), -39.2%; for `COc1ccc(OC)c(NC(=O)c2nnn(CC(=O)Nc3ccc4c(c3)OCO4)c2N)c1`, 5.99%. For the compound `Cc1ccccc1C(=O)N1CCN(c2ccc(NC(=O)Cc3ccccc3)cc2)CC1`, the “hERG current change (%, negative = inhibition) at 10uM” value was -5.38%.

On to `Cc1ccccc1Nc1nnc(SCC2CCCCO2)s1` (stereo not shown), for which the “hERG current change (%, negative = inhibition) at 10uM” value is on record as -8.78%. Next, `Cc1cc2c3c(c1C)C(=O)C(=O)N3C(C)(C)CC2C` (stereo not shown): 6.5%.

Turning to `Cc1ccccc1C(=O)N/N=C1/SCC(=O)N1Cc1ccccc1`, the “hERG current change (%, negative = inhibition) at 10uM” value is -29.8%. For `CC(=O)c1ccccc1NC(=O)COC(=O)/C=C/c1ccc(OC(F)F)cc1` the value was 16.2%; for `O=C(Cc1ccc(Cl)cc1)Nc1ccc(S(=O)(=O)Nc2cnc3ccccc3n2)cc1`, 21.1%; for `Cc1ccccc1NC1=C(Cl)C(=O)N(C2CCCCC2)C1=O`, -1.23%.

With `O=C1c2ccccc2C2=Nc3ccccc3SC(c3ccc(Cl)cc3)C12` (stereo not shown), the “hERG current change (%, negative = inhibition) at 10uM” value is 5.54%. Consider `CCn1c(NC)cc(=O)n(C)c1=O`, for which the “hERG current change (%, negative = inhibition) at 10uM” value was found to be 11.2%. For `CC(=O)Nc1ccc(NC(=O)CN2CCN(c3ccccn3)CC2)cc1` the value was 13.3%.

Regarding `COc1ccc(S(=O)(=O)N(C(=O)c2ccncc2)c2ccc3oc4c(c3c2)CCCC4)cc1`, the “hERG current change (%, negative = inhibition) at 10uM” value was -5.37%. For `CCC(=O)N1c2ccc(S(=O)(=O)CCC(=O)N3CCn4c3nc3ccccc34)cc2CC1C` (stereo not shown), the “hERG current change (%, negative = inhibition) at 10uM” value is given as 1.31%. Next, `Cc1cccc(OCCSc2ncnc3nc[nH]c23)c1`: -1.22%; `Nc1c(C(=O)N2CCOCC2)sc2nc3c(cc12)CCC3`: 5.1%; `CCOc1ccc(NC(=S)N2CCCN(Cc3cc(C)ccc3C)C2)cc1`: -57.8%. For `O=c1[nH]c2ccc(Cl)cc2c(-c2ccccc2)c1N1CCN(CCO)CC1` the value was -64.6%; for `Cc1sc(NC(=O)c2cc(-c3ccccc3)nc3ccccc23)c(C(N)=O)c1C`, 6.09%; for `Cc1nnc(SC(C(=O)Nc2ccc(Cl)c([N+](=O)[O-])c2)c2ccccc2)[nH]c1=O` (stereo not shown), 20.7%. For `COc1ccc(OCCNc2cc(N3CCCCC3)ccc2[N+](=O)[O-])cc1` the value was 11.2%. Take `O=C(NCc1ccco1)c1cc2sccc2n1Cc1ccccc1`: the “hERG current change (%, negative = inhibition) at 10uM” value is given as -15.7%. Next, `CCOC(=O)CSc1nnc(-c2cccc(Br)c2)o1`: 1.27%.

`COc1ccc(N(CC(=O)NC2CCCC2)C(=O)CCC(=O)Nc2cc(C)on2)c(OC)c1`: the “hERG current change (%, negative = inhibition) at 10uM” value was -12.4%. Next, `O=C(O)CCc1ccc(-c2ccc(Br)cc2)n1NC(=O)c1ccc([N+](=O)[O-])cc1`: 2.6%. Take `COc1ccc(Br)cc1/C=N/n1c(C)nnc1C`: the “hERG current change (%, negative = inhibition) at 10uM” value is -1.89%. Next, `NC(=O)Cn1cc(C=C2C(=O)NC(=O)NC2=O)c2ccccc21`: 20.3%. Next, `CC1CN(CC(=O)Nc2cccc(C(=O)Nc3cccc(C(F)(F)F)c3)c2)CC(C)O1` (stereo not shown): -54.3%; `Cn1c(C(=O)NCCOc2ccccc2Cl)cc(=O)n(C)c1=O`: 14.5%. For `CCc1nnc(NC(=O)[C@@H](NC(=O)c2cccc(S(=O)(=O)N3CCOCC3)c2)C(C)C)s1` the value was 6.16%.

Regarding `CCOc1ccc(N2CC(C(=O)Nc3nnc(C4CCCCC4)s3)CC2=O)cc1` (stereo not shown), the “hERG current change (%, negative = inhibition) at 10uM” value is on record as -14.6%. Next, `Cc1c(C(=O)OCC(=O)N(C)C2CCS(=O)(=O)C2)oc2ccc(Br)cc12` (stereo not shown): -23.8%; `O=C(/C=C/c1ccc(S(=O)(=O)N2CCOCC2)cc1)NCc1ccccc1`: -4.31%; `CCOc1ccc(C2NC(=O)NC(C)=C2C(=O)OCc2ccccc2)cc1` (stereo not shown): -4.23%. Next, `CCn1c(COc2cccc(C)c2)nc2ccccc21`: 0.719%. For `CN1CCC[C@H]1c1cccnc1.O=C(O)C(O)C(O)C(=O)O` the value was -4.63%. Regarding `CCOCc1nnc(NC(=O)CCC2CCCCC2)s1`, the “hERG current change (%, negative = inhibition) at 10uM” value was determined as 14%.

Regarding `CC1CN(c2nc3c(c(=O)n(C)c(=O)n3C)n2Cc2c(Cl)cccc2Cl)CC(C)O1` (stereo not shown), the “hERG current change (%, negative = inhibition) at 10uM” value is -10.5%.

As to `CCC(=O)Nc1nnc(-c2ccncc2)s1`, the “hERG current change (%, negative = inhibition) at 10uM” value was determined as 19.3%. For `COc1ccc2c(c1)cc1c(=O)n(CC(=O)NC(C)CCc3ccccc3)nc(C)n12` (stereo not shown) the value was 19%.

As to `CC1=C/C(=N\OC(=O)/C=C/c2ccccc2)C(C)=CC1=O`, the “hERG current change (%, negative = inhibition) at 10uM” value turned out to be 1.92%.

Regarding `Cc1nc(C2CCC3C4CCC5=CC(=O)CC[C@]5(C)C4CC[C@]23C)cs1` (stereo partly shown), the “hERG current change (%, negative = inhibition) at 10uM” value is recorded as 22%. `Cn1cnnc1SCC(=O)OCN1C(=O)c2ccccc2C1=O`: the “hERG current change (%, negative = inhibition) at 10uM” value is 13%. Next, `CCOc1ccccc1NC(=S)NCc1ccco1`: 20.3%. For `COc1ccc(C2c3ccc4ccccc4c3Oc3ncn(CCCO)c(=N)c32)cc1OC` (stereo not shown) the value was -62.3%; for `CNC(=O)c1c(NC(=O)CCS(=O)(=O)c2ccc(Cl)cc2)sc2c1CCN(C(=O)OC)C2`, -21.7%.

Turning to `COc1ccc(OC)c(C2Nc3nc4ccccc4n3C(C)=C2C(=O)Nc2ccc(C)cc2C)c1` (stereo not shown), the “hERG current change (%, negative = inhibition) at 10uM” value is -16%. With `O=C(Nc1ccc(SC(F)F)cc1)C1CC(=O)N(Cc2ccccc2)C1` (stereo not shown), the “hERG current change (%, negative = inhibition) at 10uM” value is given as -48%. Next, `COc1ccc(NC(=O)CN2CCN(C(=O)N3CCOCC3)CC2)cc1`: -14.2%; `C=CCc1cccc(CNc2ccc(Br)cc2)c1O`: 9.44%; `CCc1ccc(-c2cc3c(=O)n(CC(=O)N4CCCCCC4)nc(C)n3n2)cc1`: 12.9%. For `COc1ccc(N/N=C(/C(C)=O)N2CCCc3ccccc32)cc1` the value was 3.55%; for `COc1cccc(CN2CCN(Cc3cccn3-c3cccnc3)CC2CCO)c1` (stereo not shown), -71.4%; for `O=S1(=O)CCC(NC(=S)Nc2ccc3ccccc3c2)C1` (stereo not shown), 9.66%. Next, `CNC(C)C#Cc1c(-c2cc(OC)c(OC)c(OC)c2)noc1C` (stereo not shown): -23%.
